{"source": "paper PMC9911399", "about": "“Two distinct binding modes provide the RNA-binding protein RbFox with extraordinary sequence specificity”", "binders": {"B1": {"name": "GGGACUC (DNA:RNA)", "RNA": "GGGAGACCGGAAUUCAGAUUGUCCGGGACUCUUAAAUCCCGUCGUAGCCACCA", "DNA 1": "CAATCTGAATTCCGGTCTCCC", "DNA 2": "TGGTGGCTACGACGGGATT"}, "B2": {"name": "GACCUCG (DNA:RNA)", "RNA": "B1 RNA with G26A, G27C, A28C, C29U, U30C, C31G", "DNA 1": "CAATCTGAATTCCGGTCTCCC", "DNA 2": "TGGTGGCTACGACGGGATT"}, "B3": {"name": "CGGUACG (DNA:RNA)", "RNA": "B1 RNA with G25C, A28U, C29A, U30C, C31G", "DNA 1": "CAATCTGAATTCCGGTCTCCC", "DNA 2": "TGGTGGCTACGACGGGATT"}, "B4": {"name": "GGUCCAU (DNA:RNA)", "RNA": "B1 RNA with G27U, A28C, U30A, C31U", "DNA 1": "CAATCTGAATTCCGGTCTCCC", "DNA 2": "TGGTGGCTACGACGGGATT"}, "B5": {"name": "GUCGCGU (DNA:RNA)", "RNA": "B1 RNA with G26U, G27C, A28G, U30G, C31U", "DNA 1": "CAATCTGAATTCCGGTCTCCC", "DNA 2": "TGGTGGCTACGACGGGATT"}, "B6": {"name": "UACAGAC (DNA:RNA)", "RNA": "B1 RNA with G25U, G26A, G27C, C29G, U30A", "DNA 1": "CAATCTGAATTCCGGTCTCCC", "DNA 2": "TGGTGGCTACGACGGGATT"}, "B7": {"name": "UGACUUC (DNA:RNA)", "RNA": "B1 RNA with G25U, G27A, A28C, C29U", "DNA 1": "CAATCTGAATTCCGGTCTCCC", "DNA 2": "TGGTGGCTACGACGGGATT"}, "B8": {"name": "AUUUUGC (DNA:RNA)", "RNA": "B1 RNA with G25A, G26U, G27U, A28U, C29U, U30G", "DNA 1": "CAATCTGAATTCCGGTCTCCC", "DNA 2": "TGGTGGCTACGACGGGATT"}, "B9": {"name": "GGUUGCG (DNA:RNA)", "RNA": "B1 RNA with G27U, A28U, C29G, U30C, C31G", "DNA 1": "CAATCTGAATTCCGGTCTCCC", "DNA 2": "TGGTGGCTACGACGGGATT"}, "B10": {"name": "UAGGCCC (DNA:RNA)", "RNA": "B1 RNA with G25U, G26A, A28G, U30C", "DNA 1": "CAATCTGAATTCCGGTCTCCC", "DNA 2": "TGGTGGCTACGACGGGATT"}, "B11": {"name": "CUCUACC (DNA:RNA)", "RNA": "B1 RNA with G25C, G26U, G27C, A28U, C29A, U30C", "DNA 1": "CAATCTGAATTCCGGTCTCCC", "DNA 2": "TGGTGGCTACGACGGGATT"}, "B12": {"name": "CUUGAUG (DNA:RNA)", "RNA": "B1 RNA with G25C, G26U, G27U, A28G, C29A, C31G", "DNA 1": "CAATCTGAATTCCGGTCTCCC", "DNA 2": "TGGTGGCTACGACGGGATT"}, "B13": {"name": "UUACUAG (DNA:RNA)", "RNA": "GGGAGACCGGAAUUCAGAUUGUCCUUACUAGUUAAAUCCCGUCGUAGCCACCA", "DNA 1": "CAATCTGAATTCCGGTCTCCC", "DNA 2": "TGGTGGCTACGACGGGATT"}, "B14": {"name": "CGAAGCA (DNA:RNA)", "RNA": "B1 RNA with G25C, G27A, C29G, U30C, C31A", "DNA 1": "CAATCTGAATTCCGGTCTCCC", "DNA 2": "TGGTGGCTACGACGGGATT"}, "B15": {"name": "AUCCAUA (DNA:RNA)", "RNA": "B13 RNA with U25A, A27C, U29A, A30U, G31A", "DNA 1": "CAATCTGAATTCCGGTCTCCC", "DNA 2": "TGGTGGCTACGACGGGATT"}, "B16": {"name": "CAGGCGC (DNA:RNA)", "RNA": "B1 RNA with G25C, G26A, A28G, U30G", "DNA 1": "CAATCTGAATTCCGGTCTCCC", "DNA 2": "TGGTGGCTACGACGGGATT"}, "B17": {"name": "UAAAUGA (DNA:RNA)", "RNA": "B13 RNA with U26A, C28A, A30G, G31A", "DNA 1": "CAATCTGAATTCCGGTCTCCC", "DNA 2": "TGGTGGCTACGACGGGATT"}, "B18": {"name": "AACCAUC (DNA:RNA)", "RNA": "B1 RNA with G25A, G26A, G27C, A28C, C29A", "DNA 1": "CAATCTGAATTCCGGTCTCCC", "DNA 2": "TGGTGGCTACGACGGGATT"}, "B19": {"name": "UGAACAC (DNA:RNA)", "RNA": "B1 RNA with G25U, G27A, U30A", "DNA 1": "CAATCTGAATTCCGGTCTCCC", "DNA 2": "TGGTGGCTACGACGGGATT"}, "B20": {"name": "ACCCAAU (DNA:RNA)", "RNA": "B13 RNA with U25A, U26C, A27C, U29A, G31U", "DNA 1": "CAATCTGAATTCCGGTCTCCC", "DNA 2": "TGGTGGCTACGACGGGATT"}, "B21": {"name": "AUUUGGC (DNA:RNA)", "RNA": "B1 RNA with G25A, G26U, G27U, A28U, C29G, U30G", "DNA 1": "CAATCTGAATTCCGGTCTCCC", "DNA 2": "TGGTGGCTACGACGGGATT"}, "B22": {"name": "GUCAGCG (DNA:RNA)", "RNA": "B1 RNA with G26U, G27C, C29G, U30C, C31G", "DNA 1": "CAATCTGAATTCCGGTCTCCC", "DNA 2": "TGGTGGCTACGACGGGATT"}, "B23": {"name": "CGCCCUG (DNA:RNA)", "RNA": "B1 RNA with G25C, G27C, A28C, C31G", "DNA 1": "CAATCTGAATTCCGGTCTCCC", "DNA 2": "TGGTGGCTACGACGGGATT"}, "B24": {"name": "CAUUUGA (DNA:RNA)", "RNA": "B13 RNA with U25C, U26A, A27U, C28U, A30G, G31A", "DNA 1": "CAATCTGAATTCCGGTCTCCC", "DNA 2": "TGGTGGCTACGACGGGATT"}, "B25": {"name": "AACAUAC (DNA:RNA)", "RNA": "B1 RNA with G25A, G26A, G27C, C29U, U30A", "DNA 1": "CAATCTGAATTCCGGTCTCCC", "DNA 2": "TGGTGGCTACGACGGGATT"}, "B26": {"name": "UAAGACA (DNA:RNA)", "RNA": "B13 RNA with U26A, C28G, U29A, A30C, G31A", "DNA 1": "CAATCTGAATTCCGGTCTCCC", "DNA 2": "TGGTGGCTACGACGGGATT"}, "B27": {"name": "GACAGUU (DNA:RNA)", "RNA": "B1 RNA with G26A, G27C, C29G, C31U", "DNA 1": "CAATCTGAATTCCGGTCTCCC", "DNA 2": "TGGTGGCTACGACGGGATT"}, "B28": {"name": "UGCUUUU (DNA:RNA)", "RNA": "B1 RNA with G25U, G27C, A28U, C29U, C31U", "DNA 1": "CAATCTGAATTCCGGTCTCCC", "DNA 2": "TGGTGGCTACGACGGGATT"}, "B29": {"name": "CGAGAAA (DNA:RNA)", "RNA": "B13 RNA with U25C, U26G, C28G, U29A, G31A", "DNA 1": "CAATCTGAATTCCGGTCTCCC", "DNA 2": "TGGTGGCTACGACGGGATT"}, "B30": {"name": "CACCAGA (DNA:RNA)", "RNA": "B13 RNA with U25C, U26A, A27C, U29A, A30G, G31A", "DNA 1": "CAATCTGAATTCCGGTCTCCC", "DNA 2": "TGGTGGCTACGACGGGATT"}, "B31": {"name": "UCCUCUU (DNA:RNA)", "RNA": "B1 RNA with G25U, G26C, G27C, A28U, C31U", "DNA 1": "CAATCTGAATTCCGGTCTCCC", "DNA 2": "TGGTGGCTACGACGGGATT"}}, "note": "Residue numbers refer to the chain shown, from its start. This is one part of the list.", "data": [{"molecular_target": "T1, RBFOX1 RRM (Homo sapiens, UniProt Q9NWB1 109-208)", "T1 sequence": "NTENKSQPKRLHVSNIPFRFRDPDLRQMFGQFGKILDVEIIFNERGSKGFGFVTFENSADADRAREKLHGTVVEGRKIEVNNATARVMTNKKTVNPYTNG", "experiment": "EMSA; HiTS-Eq, 1 nM pool, 10 min; buffer printed only for the single-RNA assays: 10 mM Tris pH 7.5, 150 mM NaCl, 3.4 mM EDTA, 0.001% NP-40, 30 C", "conditions": "tags: His6 N-terminal (pET28a); label: 5' 32P", "how_it_was_run": "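Purified RbFox RRM (wild type or mutant) was equilibrated for 10 min in 50 µL with 1 nM of a 5′-radiolabelled pool of RNA with 7 randomized nucleotides, its flanks annealed to DNA oligonucleotides, across increasing protein concentrations. Free RNA was separated by 8% native PAGE, excised, reverse-transcribed, PCR-barcoded and sequenced on an Illumina HiSeq 2500. Relative association constants came from read-count changes of each variant against the control reaction, normalised to the cognate motif.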", "values": [{"binder": "B1", "binding signal": "0.0264 KA relative to UGCAUGU"}, {"binder": "B2", "binding signal": "0.00932 KA relative to UGCAUGU"}, {"binder": "B3", "binding signal": "0.0111 KA relative to UGCAUGU"}, {"binder": "B4", "binding signal": "0.00705 KA relative to UGCAUGU"}, {"binder": "B5", "binding signal": "0.0218 KA relative to UGCAUGU"}, {"binder": "B6", "binding signal": "0.00317 KA relative to UGCAUGU"}, {"binder": "B7", "binding signal": "0.0183 KA relative to UGCAUGU"}, {"binder": "B8", "binding signal": "0.0144 KA relative to UGCAUGU"}, {"binder": "B9", "binding signal": "0.0185 KA relative to UGCAUGU"}, {"binder": "B10", "binding signal": "0.011 KA relative to UGCAUGU"}, {"binder": "B11", "binding signal": "0.00511 KA relative to UGCAUGU"}, {"binder": "B12", "binding signal": "0.0197 KA relative to UGCAUGU"}, {"binder": "B13", "binding signal": "0.0111 KA relative to UGCAUGU"}, {"binder": "B14", "binding signal": "0.0141 KA relative to UGCAUGU"}, {"binder": "B15", "binding signal": "0.000976 KA relative to UGCAUGU"}, {"binder": "B16", "binding signal": "0.0124 KA relative to UGCAUGU"}, {"binder": "B17", "binding signal": "0.0076 KA relative to UGCAUGU"}, {"binder": "B18", "binding signal": "0.00115 KA relative to UGCAUGU"}, {"binder": "B19", "binding signal": "0.00931 KA relative to UGCAUGU"}, {"binder": "B20", "binding signal": "0.000842 KA relative to UGCAUGU"}, {"binder": "B21", "binding signal": "0.0106 KA relative to UGCAUGU"}, {"binder": "B22", "binding signal": "0.0134 KA relative to UGCAUGU"}, {"binder": "B23", "binding signal": "0.0181 KA relative to UGCAUGU"}, {"binder": "B24", "binding signal": "0.0105 KA relative to UGCAUGU"}, {"binder": "B25", "binding signal": "0.00019 KA relative to UGCAUGU"}, {"binder": "B26", "binding signal": "0.00359 KA relative to UGCAUGU"}, {"binder": "B27", "binding signal": "0.00923 KA relative to UGCAUGU"}, {"binder": "B28", "binding signal": "0.0211 KA relative to UGCAUGU"}, {"binder": "B29", "binding signal": "0.00724 KA relative to UGCAUGU"}, {"binder": "B30", "binding signal": "0.00544 KA relative to UGCAUGU"}, {"binder": "B31", "binding signal": "0.00411 KA relative to UGCAUGU"}]}]}
